According to patent publication US11339192B2, “Bicyclic peptidyl inhibitors” (priority 2017, dated 2022):
At least one structure is not confirmed: it was looked up by name or label, or the drawing left a doubt. Numbered stars: 1 amine (or outer) side, 2 acyl side, 3 side chain; on linkers, the order of the positions; unused ones are H or OH. Bridge positions count the residues as written; N and C are the ends. Square brackets hold non-standard residues; d marks the D form. Peptide text beside a SMILES is read from it. Trimesoyl = O=C(c1cc(C(=O)[*:2])cc(C(=O)[*:3])c1)[*:1]; 2Nal = N[C@@H](Cc1ccc2ccccc2c1)C(=O)O; Dap = NC[C@H](N)C(=O)O; βAla = NCCC(=O)O

Target: T1, NEMO-IKKβ interaction (Homo sapiens, UniProt Q9Y6K9)
T1 construct: cells were transformed with a pGEX4T3-NEMO(1-196) plasmid; made in house; host or cells: Escherichia coli BL21(DE3)
Test: HTRF assay of inhibition of the NEMO-IKKβ interaction
Type: binding
Details: mean±SD of three experiments

T1 sequence (Q9Y6K9 1-196): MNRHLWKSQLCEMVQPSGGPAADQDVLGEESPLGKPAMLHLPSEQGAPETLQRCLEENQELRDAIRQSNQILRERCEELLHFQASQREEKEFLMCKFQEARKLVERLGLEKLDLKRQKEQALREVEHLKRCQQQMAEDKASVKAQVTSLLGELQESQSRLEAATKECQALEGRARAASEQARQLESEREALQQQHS

Compound	IC50
CC[C@H](C)[C@@H]1NC(=O)[C@H](Cc2c[nH]c3ccccc23)NC(=O)CNC(=O)c2cc3cc(c2)C(=O)NC[C@H](NC(=O)[C@H](Cc2ccc(O)cc2)NC1=O)C(=O)N[C@@H](Cc1ccccc1)C(=O)N[C@@H](Cc1ccc2ccccc2c1)C(=O)N[C@@H](CCCNC(=N)N)C(=O)N[C@@H](CCCNC(=N)N)C(=O)N[C@@H](CCCNC(=N)N)C(=O)N[C@@H](CCCNC(=N)N)C(=O)N[C@H](C(=O)NCCC(=O)NCCC(=O)N[C@@H](CCCCN)C(=O)O)CNC3=O [Peptide 3, Tm(GWIY)Δ(FΦRRRRΔ)-BBK] (GWIY[Dap]F[2Nal]RRRR[Dap][βAla][βAla]K-OH; linker N-5-12 via Trimesoyl; C-terminus assumed)	1.5 ± 0.2 µM
CC[C@H](C)[C@@H]1NC(=O)[C@H](Cc2c[nH]c3ccccc23)NC(=O)CNC(=O)c2cc3cc(c2)C(=O)NC[C@H](NC(=O)[C@H](Cc2ccc(O)cc2)NC1=O)C(=O)N[C@@H](Cc1ccccc1)C(=O)N[C@@H](Cc1ccc2ccccc2c1)C(=O)N[C@@H](CCCNC(=N)N)C(=O)N[C@@H](CCCNC(=N)N)C(=O)N[C@@H](CCCNC(=N)N)C(=O)N[C@H](C(=O)NCCC(=O)NCCC(=O)N[C@@H](CCCCN)C(=O)O)CNC3=O [Peptide 2, Tm(GWIY)Δ(FΦRRRΔ)-BBK] (GWIY[Dap]F[2Nal]RRR[Dap][βAla][βAla]K-OH; linker N-5-11 via Trimesoyl; C-terminus assumed)	3.4 µM
CC[C@H](C)[C@@H]1NC(=O)[C@H](Cc2c[nH]c3ccccc23)NC(=O)CNC(=O)c2cc3cc(c2)C(=O)NC[C@H](NC(=O)[C@H](Cc2ccc(O)cc2)NC1=O)C(=O)N[C@@H](Cc1ccccc1)C(=O)N[C@@H](Cc1ccc2ccccc2c1)C(=O)N[C@@H](CCCNC(=N)N)C(=O)N[C@@H](CCCNC(=N)N)C(=O)N[C@@H](CCCNC(=N)N)C(=O)N[C@H](C(=O)N[C@@H](CCCNC(=N)N)C(=O)NCCC(=O)N[C@@H](CCCCN)C(=O)O)CNC3=O [Peptide 4, Tm(GWIY)Δ(FΦRRRΔ)-RBK] (GWIY[Dap]F[2Nal]RRR[Dap]R[βAla]K-OH; linker N-5-11 via Trimesoyl; C-terminus assumed)	1.8 ± 0.3 µM
CC[C@H](C)[C@@H]1NC(=O)[C@H](Cc2c[nH]c3ccccc23)NC(=O)CNC(=O)c2cc3cc(c2)C(=O)NC[C@@H](C(=O)NCCC(=O)NCCC(=O)N[C@@H](CCCCN)C(=O)O)NC(=O)[C@H](CCCNC(=N)N)NC(=O)[C@@H](CCCNC(=N)N)NC(=O)[C@H](CCCNC(=N)N)NC(=O)[C@H](C)NC(=O)[C@H](Cc2ccccc2)NC(=O)[C@H](CNC3=O)NC(=O)[C@H](C)NC(=O)[C@H](Cc2ccc(O)cc2)NC1=O [Peptide 16, Tm(GWIYA)Δ(FARrRΔ)-BBK] (GWIYA[Dap]FAR[dR]R[Dap][βAla][βAla]K-OH; linker N-6-12 via Trimesoyl; C-terminus assumed)	2.8 ± 0.2 µM
C[C@@H]1NC(=O)[C@H](Cc2c[nH]c3ccccc23)NC(=O)CNC(=O)c2cc3cc(c2)C(=O)NC[C@@H](C(=O)NCCC(=O)NCCC(=O)N[C@@H](CCCCN)C(=O)O)NC(=O)[C@H](CCCNC(=N)N)NC(=O)[C@@H](CCCNC(=N)N)NC(=O)[C@H](CCCNC(=N)N)NC(=O)[C@H](Cc2ccc4ccccc4c2)NC(=O)[C@H](Cc2ccccc2)NC(=O)[C@H](CNC3=O)NC(=O)[C@H](C)NC(=O)[C@H](Cc2ccc(O)cc2)NC1=O [Peptide 13, Tm(GWAYA)Δ(FΦRrRΔ)-BBK] (GWAYA[Dap]F[2Nal]R[dR]R[Dap][βAla][βAla]K-OH; linker N-6-12 via Trimesoyl; C-terminus assumed)	1.7 ± 0.1 µM
CC[C@H](C)[C@@H]1NC(=O)[C@H](C)NC(=O)CNC(=O)c2cc3cc(c2)C(=O)NC[C@@H](C(=O)NCCC(=O)NCCC(=O)N[C@@H](CCCCN)C(=O)O)NC(=O)[C@H](CCCNC(=N)N)NC(=O)[C@@H](CCCNC(=N)N)NC(=O)[C@H](CCCNC(=N)N)NC(=O)[C@H](Cc2ccc4ccccc4c2)NC(=O)[C@H](Cc2ccccc2)NC(=O)[C@H](CNC3=O)NC(=O)[C@H](C)NC(=O)[C@H](C)NC1=O [Peptide 20, Tm(GAIAA)Δ(FΦRrRΔ)-BBK] (GAIAA[Dap]F[2Nal]R[dR]R[Dap][βAla][βAla]K-OH; linker N-6-12 via Trimesoyl; C-terminus assumed)	16 ± 2 µM
CC[C@H](C)[C@@H]1NC(=O)[C@H](Cc2c[nH]c3ccccc23)NC(=O)CNC(=O)c2cc3cc(c2)C(=O)NC[C@H](NC(=O)[C@H](Cc2ccc(O)cc2)NC1=O)C(=O)N[C@@H](Cc1ccccc1)C(=O)N[C@@H](Cc1ccc2ccccc2c1)C(=O)N[C@@H](CCCNC(=N)N)C(=O)N[C@H](CCCNC(=N)N)C(=O)N[C@@H](CCCNC(=N)N)C(=O)N[C@H](C(=O)NCCC(=O)NCCC(=O)N[C@@H](CCCCN)C(=O)O)CNC3=O [Peptide 6, Tm(GWIY)Δ(FΦRrRΔ)-BBK] (GWIY[Dap]F[2Nal]R[dR]R[Dap][βAla][βAla]K-OH; linker N-5-11 via Trimesoyl; C-terminus assumed)	5.9 ± 0.6 µM
CC[C@H](C)[C@@H]1NC(=O)[C@H](Cc2c[nH]c3ccccc23)NC(=O)CNC(=O)c2cc3cc(c2)C(=O)NC[C@H](NC(=O)[C@H](C)NC(=O)[C@H](Cc2ccc(O)cc2)NC1=O)C(=O)N[C@@H](Cc1ccccc1)C(=O)N[C@@H](Cc1ccc2ccccc2c1)C(=O)N[C@@H](CCCNC(=N)N)C(=O)N[C@H](CCCNC(=N)N)C(=O)N[C@@H](C)C(=O)N[C@H](C(=O)NCCC(=O)NCCC(=O)N[C@@H](CCCCN)C(=O)O)CNC3=O [Peptide 19, Tm(GWIYA)Δ(FΦRrRΔ)-BBK] (GWIYA[Dap]F[2Nal]R[dR]A[Dap][βAla][βAla]K-OH; linker N-6-12 via Trimesoyl; C-terminus assumed)	1.2 ± 0.2 µM
CC[C@H](C)[C@@H]1NC(=O)[C@H](Cc2c[nH]c3ccccc23)NC(=O)CNC(=O)c2cc3cc(c2)C(=O)NC[C@@H](C(=O)N[C@H](CCCNC(=N)N)C(=O)NCCC(=O)N[C@@H](CCCCN)C(=O)O)NC(=O)[C@H](CCCNC(=N)N)NC(=O)[C@H](CCCNC(=N)N)NC(=O)[C@H](CCCNC(=N)N)NC(=O)[C@H](Cc2ccc4ccccc4c2)NC(=O)[C@H](Cc2ccccc2)NC(=O)[C@H](CNC3=O)NC(=O)[C@H](Cc2ccc(O)cc2)NC1=O [Peptide 5, Tm(GWIY)Δ(FΦRRRΔ)-rBK] (GWIY[Dap]F[2Nal]RRR[Dap][dR][βAla]K-OH; linker N-5-11 via Trimesoyl; C-terminus assumed)	1.3 ± 0.4 µM
C[C@@H]1NC(=O)CNC(=O)c2cc3cc(c2)C(=O)NC[C@@H](C(=O)NCCC(=O)NCCC(=O)N[C@@H](CCCCN)C(=O)O)NC(=O)[C@H](CCCNC(=N)N)NC(=O)[C@@H](CCCNC(=N)N)NC(=O)[C@H](CCCNC(=N)N)NC(=O)[C@H](Cc2ccc4ccccc4c2)NC(=O)[C@H](Cc2ccccc2)NC(=O)[C@H](CNC3=O)NC(=O)[C@H](C)NC(=O)[C@H](C)NC(=O)[C@H](C)NC1=O [Peptide 21, Tm(GAAAA)Δ(FΦRrRΔ)-BBK] (GAAAA[Dap]F[2Nal]R[dR]R[Dap][βAla][βAla]K-OH; linker N-6-12 via Trimesoyl; C-terminus assumed)	> 100 µM
CC[C@H](C)[C@@H]1NC(=O)[C@H](Cc2c[nH]c3ccccc23)NC(=O)CNC(=O)c2cc3cc(c2)C(=O)NC[C@@H](C(=O)NCCC(=O)NCCC(=O)N[C@@H](CCCCN)C(=O)O)NC(=O)[C@H](CCCNC(=N)N)NC(=O)[C@@H](CCCNC(=N)N)NC(=O)[C@H](C)NC(=O)[C@H](Cc2ccc4ccccc4c2)NC(=O)[C@H](Cc2ccccc2)NC(=O)[C@H](CNC3=O)NC(=O)[C@H](C)NC(=O)[C@H](Cc2ccc(O)cc2)NC1=O [Peptide 17, Tm(GWIYA)Δ(FΦArRΔ)-BBK] (GWIYA[Dap]F[2Nal]A[dR]R[Dap][βAla][βAla]K-OH; linker N-6-12 via Trimesoyl; C-terminus assumed)	1.1 ± 0.3 µM
